# Assay results from PubChem BioAssay AID2147 (National Center for Advancing Translational Sciences (NCATS), 2009).
# The campaign covered roughly 230,000 compounds. About 3,600 (1.6%) were called active. Inconclusive means that the source gave no clear call. Such entries were picked first, then a sample of the others. Calls follow the shape of the dose curve; as a rule, active = well fitted inhibition curve with a large enough effect (not every such curve was filed as active); inconclusive = small, poorly fitted or top-dose-only effect, or another doubt; inactive = no such curve, though single readings can be large or run the other way. Where the call is inconclusive, the potency comes from a doubtful curve fit.
# Molecular target: Lysine-specific demethylase 4E (Homo sapiens) (UniProt B2RXH2)
# Assay: qHTS Assay for Inhibitors of Human Jumonji Domain Containing 2E (JMJD2E)
# Settings: JMJD2E catalytic domain, FDH-coupled NADH fluorescence (FDH is formaldehyde dehydrogenase); series mostly up to 57.1 µM
# Also: nearly all actives have a fitted effect of over 50% in size.
# Potency is read from the fitted curve at half-maximal effect; tags tell the direction and shape of the fitted curve.
# Sequence of UniProt B2RXH2 (B2RXH2 whole entry, looked up, the tested form may be a part): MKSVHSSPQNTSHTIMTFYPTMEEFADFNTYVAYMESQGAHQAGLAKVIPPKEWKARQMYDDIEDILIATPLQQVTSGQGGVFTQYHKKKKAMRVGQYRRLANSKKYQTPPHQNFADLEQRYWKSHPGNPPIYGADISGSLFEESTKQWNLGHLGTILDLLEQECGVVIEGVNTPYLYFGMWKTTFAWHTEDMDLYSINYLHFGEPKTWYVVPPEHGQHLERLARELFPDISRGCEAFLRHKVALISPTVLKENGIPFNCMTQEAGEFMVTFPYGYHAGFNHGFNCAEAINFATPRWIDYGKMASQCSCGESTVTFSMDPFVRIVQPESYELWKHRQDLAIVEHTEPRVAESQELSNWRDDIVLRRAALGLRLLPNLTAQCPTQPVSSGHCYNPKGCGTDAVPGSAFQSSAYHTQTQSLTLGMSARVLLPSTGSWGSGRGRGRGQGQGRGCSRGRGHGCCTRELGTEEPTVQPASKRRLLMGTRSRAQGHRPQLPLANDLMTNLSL
row,SMILES,Potency
1,Cc1nc(N2CCOCC2)c2c(C)c(C(=O)Nc3ccc(F)cc3Cl)sc2n1,"inconclusive: 35.5 µM [inhibitor, single point]"
2,Cc1cccc2cc(C(c3nnnn3CC3CCCO3)N3CCCc4ccccc43)c(=O)[nH]c12 (stereo unspecified),inactive
3,O=c1cc(-c2cc(O)c(O)c(O)c2)oc2cc(O)cc(O)c12,active: 10 µM
4,Cc1ccc(NC(=O)CN2C(=O)S/C(=C/c3ccc(-c4cc(C(=O)O)ccc4C)o3)C2=O)cc1C,"inconclusive: 39.8 µM [inhibitor, single point]"
5,CSCCC(=O)Nc1nc(-c2ccccn2)cs1,"inconclusive: 25.1 µM [inhibitor, single point]"
6,Cc1c(CC(=O)O)c(=O)oc2cc3oc4c(c3cc12)CCCC4,"inconclusive: 31.6 µM [inhibitor, partial curve]"
7,Cc1cccn2c(=O)c(/C=C(\C#N)S(=O)(=O)c3ccccc3)c(N3CCCCC3)nc12,"inconclusive: 31.6 µM [inhibitor, single point]"
8,NNC(=O)c1cc2sccc2s1,inactive
9,S=c1[nH]nc(-c2ccccn2)n1/N=C/c1cccc2ccccc12,"inconclusive: 39.8 µM [inhibitor, single point]"
10,O=C1CCC/C1=C/Nc1cccc(F)c1,"inconclusive: 17.8 µM [inhibitor, single point]"
11,CC1CN(c2oc(-c3ccccc3Cl)nc2C#N)CC(C)O1 (stereo unspecified),"inconclusive: 5.01 µM [inhibitor, full curve]"
12,CC(=O)Nc1ccc(S(=O)(=O)Nc2nc(C)nc3sc4c(c23)CCC4)cc1,inactive
13,CN(C)S(=O)(=O)c1ccc(-c2cn3ccccc3n2)cc1,"inconclusive: 28.2 µM [inhibitor, partial curve]"
14,Clc1ccccc1CSc1cc2c(nn1)-c1ccccc1CC2,"inconclusive: 6.31 µM [inhibitor, single point]"
15,CCOc1nnc(C)c2c(C)n(-c3cccc(OC)c3)nc12,inactive
16,COc1ccc2nc(NC(=O)c3cccc(OCc4c(C)noc4C)c3)sc2c1,"inconclusive: 22.4 µM [inhibitor, partial curve]"
17,CCc1c(C)sc(NC(=O)CC#N)c1C#N,"inconclusive: 25.1 µM [inhibitor, partial curve]"
18,COc1ccc(-c2nc(NC(=O)CSc3nnc(C)s3)ns2)cc1,"inconclusive: 20 µM [inhibitor, partial curve]"
19,CCOC(=O)N1CCN(C(=O)CSCc2ccccc2Cl)CC1,inactive
20,CN(C)/C=C1/Oc2c(ccc3ccccc23)C1=O,"inconclusive: 22.4 µM [inhibitor, partial curve]"
21,O=C(Cc1cccs1)NNC(=S)NC(=O)c1ccccc1,"inconclusive: 39.8 µM [inhibitor, single point]"
22,COc1ccc(-n2nnnc2SC(C)C(N)=O)cc1 (stereo unspecified),"inconclusive: 28.2 µM [inhibitor, single point]"
23,CCC(O)(CC)C(=O)N/N=C/c1cc(Br)cc(Br)c1O,"inconclusive: 28.2 µM [inhibitor, single point]"

row,SMILES,Potency
1,Cc1ccc(CCn2c3c(c4ccccc42)CN(C)CC3)cn1,"inconclusive: 31.6 µM [inhibitor, partial curve]"
2,COc1ccc(-c2nc(C(=O)N3CCN(C)CC3)sc2-c2ccc(OC)cc2)cc1,"inconclusive: 35.5 µM [inhibitor, partial curve]"
3,OCCC1CN(Cc2nc3ccccc3s2)CCN1CCc1ccccc1 (stereo unspecified),inactive
4,CC(C)CC[n+]1ccn(-c2nc3ccccc3nc2[N-]S(=O)(=O)c2ccc(Cl)cc2)c1,"inconclusive: 28.2 µM [inhibitor, partial curve]"
5,CCCNS(=O)(=O)c1ccc(CCC(=O)NCc2ccco2)cc1,inactive
6,CCOc1ccc(CN2CCN(Cc3cn(CC)nc3C)CC2CCO)cc1 (stereo unspecified),inactive
7,COc1ccc(C2=NN(C(C#N)c3ccc(OC)cc3)C(c3ccccc3)C2)cc1 (stereo unspecified),"inconclusive: 25.1 µM [inhibitor, single point]"
8,Cc1cc(=O)oc2cc(OCC(=O)N/N=C/c3ccccc3[N+](=O)[O-])ccc12,"inconclusive: 22.4 µM [inhibitor, partial curve]"
9,CN1c2cccc3cccc(c23)N(C)C1(C)C,"inconclusive: 25.1 µM [inhibitor, partial curve]"
10,COc1ccc(-c2cc(C(=O)N3CCN(c4ccccc4)CC3)c3ccccc3n2)cc1OC,"inconclusive: 28.2 µM [inhibitor, single point]"
11,CN(Cc1ccccc1)C1=CC(=[N+]2CCCCC2)CC(C)(C)C1,inactive
12,COc1ccccc1C1=NNC(=NCc2ccccc2)SC1,"inconclusive: 20 µM [inhibitor, single point]"
13,CC(C)(C)C(=O)NC(=S)NNC(=O)c1ccc(-c2ccccc2)cc1,"inconclusive: 39.8 µM [inhibitor, single point]"
14,N#CC1=C(N)N2C(=C(C#N)C1c1cccc(Br)c1)Nc1ccccc12 (stereo unspecified),"inconclusive: 25.1 µM [inhibitor, partial curve]"
15,O=C(CSc1nnc(NC(=O)C2CCC2)s1)Nc1ccc(N2CCOCC2)cc1,inactive
16,Cc1cc(C)c2[nH]c(O)c(N=NC3=NC(=O)CS3)c2c1,inactive
17,O=C1NC(c2ccc3c(c2)OCO3)Nc2ccccc21 (stereo unspecified),"inconclusive: 28.2 µM [inhibitor, partial curve]"
18,COc1cc(NS(=O)(=O)c2ccc(NC(=S)NC(=O)CC(C)C)cc2)nc(OC)n1,inactive
19,Cc1nn2c(N3CCCC3)cc(C(C)C)nc2c1-c1ccccc1,"inconclusive: 15.8 µM [inhibitor, partial curve]"
20,Cc1ccc(C2c3c(oc4ccccc4c3=O)C(=O)N2CCCN2CCOCC2)o1 (stereo unspecified),"inconclusive: 28.2 µM [inhibitor, single point]"
21,CC(C)Cn1c(-c2cccs2)nc2ccccc21,"inconclusive: 31.6 µM [inhibitor, partial curve]"
22,CC(C)NCCOCCOc1ccccc1F,"inconclusive: 31.6 µM [inhibitor, single point]"
23,O=C(c1cc2ccccc2c(=O)o1)N1CCc2ccccc2C1,inactive
